The campaign covered roughly 310,000 compounds. About 14,000 (4.5%) showed an effect of 50% or more. The effect is printed as a negative number. The list shows a part of the results.
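Note: peak tail current of the secondary pulse compared with the same well before compound.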

For the test, the target named is human ether-à-go-go-related gene (hERG) potassium channel (human, UniProt Q12809). The test can be described thus: primary screen, population patch clamp on CHO cells stably expressing hERG.
Sequence of human ether-à-go-go-related gene (hERG) potassium channel (Q12809 whole entry, looked up): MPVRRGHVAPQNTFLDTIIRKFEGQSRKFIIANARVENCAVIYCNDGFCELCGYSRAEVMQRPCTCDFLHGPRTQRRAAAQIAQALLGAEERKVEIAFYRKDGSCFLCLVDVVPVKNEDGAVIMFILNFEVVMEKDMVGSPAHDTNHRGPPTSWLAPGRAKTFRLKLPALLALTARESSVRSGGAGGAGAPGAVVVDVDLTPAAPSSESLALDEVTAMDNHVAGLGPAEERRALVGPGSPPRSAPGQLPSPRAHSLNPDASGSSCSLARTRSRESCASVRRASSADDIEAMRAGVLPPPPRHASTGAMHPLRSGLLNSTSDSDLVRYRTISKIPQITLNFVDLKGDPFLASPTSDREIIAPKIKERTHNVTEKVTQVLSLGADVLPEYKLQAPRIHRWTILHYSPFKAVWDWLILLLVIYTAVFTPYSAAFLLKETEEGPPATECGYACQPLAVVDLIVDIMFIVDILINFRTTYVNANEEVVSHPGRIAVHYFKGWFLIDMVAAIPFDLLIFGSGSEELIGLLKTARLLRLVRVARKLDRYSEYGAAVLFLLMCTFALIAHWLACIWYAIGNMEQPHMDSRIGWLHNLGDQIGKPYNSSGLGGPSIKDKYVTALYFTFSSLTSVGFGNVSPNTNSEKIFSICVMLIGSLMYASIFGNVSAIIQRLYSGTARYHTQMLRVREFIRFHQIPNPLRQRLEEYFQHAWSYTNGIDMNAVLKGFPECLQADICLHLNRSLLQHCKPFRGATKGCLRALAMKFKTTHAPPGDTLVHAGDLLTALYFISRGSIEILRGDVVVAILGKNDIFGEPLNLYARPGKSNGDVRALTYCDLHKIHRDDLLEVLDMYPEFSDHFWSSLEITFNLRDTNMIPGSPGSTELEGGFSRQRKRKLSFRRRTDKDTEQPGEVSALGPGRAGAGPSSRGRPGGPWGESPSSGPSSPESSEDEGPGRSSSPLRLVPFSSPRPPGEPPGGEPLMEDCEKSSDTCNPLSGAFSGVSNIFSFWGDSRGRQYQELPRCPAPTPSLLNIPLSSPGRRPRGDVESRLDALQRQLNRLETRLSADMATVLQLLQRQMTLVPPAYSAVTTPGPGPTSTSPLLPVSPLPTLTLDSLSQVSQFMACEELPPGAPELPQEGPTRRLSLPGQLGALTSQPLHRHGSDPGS
With `CCOc1ccccc1N1CCN(C(=O)C2c3ccccc3Oc3ccccc32)CC1`, the “hERG current change (%, negative = inhibition) at 10uM” value is given as -6.22%. With `CC1(C(=O)OCC(=O)Nc2cccc(S(=O)(=O)NC3=NCCCCC3)c2)CC1(Cl)Cl` (centres unmarked) the figure was 10.7%; with `Cc1cc(C(=O)CSc2ccc3c(c2)OCCO3)c(C)n1C1CC1`, -12.4%; with `O=C(/C=C/c1ccc(Cl)cc1)Nc1ccc(N2CCOCC2)cc1`, 2.39%. With `CCOC(=O)c1cc2oc(C)cc2n1CC(=O)OC1CCCCC1` the figure was -5.5%; with `COc1cc(C)ccc1OCc1cc(C(=O)N2CCN(C3CCCCC3)CC2)no1`, -24.4%; with `Cc1ccc(S(=O)(=O)/N=C2\C=C(Nc3cccc(C(=O)O)c3)C(=O)c3ccccc32)cc1`, 14.4%. `Cc1cccc(NC(=O)c2ccc(S(=O)(=O)N3CCC(C)CC3)cc2)n1`: the “hERG current change (%, negative = inhibition) at 10uM” value is -59.2%. With `O=C(NCc1cccc(Cl)c1)NC(=O)c1csc([N+](=O)[O-])c1` the figure was 5.38%. With `Cc1cc(C)cc(NC(=O)CSc2nc3c(c(=O)n2C)SC(C)C3)c1` (centres unmarked) the figure was 3.64%. With `CSc1nc(N(C)C)c2ccccc2n1` the figure was -19%. With `CCOc1ccc(C2C=C(c3ccccc3)Nc3ncnn32)cc1` (centres unmarked), the “hERG current change (%, negative = inhibition) at 10uM” value was -47.2%. With `CCOC(=O)/C(=N/Nc1ccc(OC)cc1)Sc1nnc(CCc2ccccc2)n1-c1ccccc1` the figure was 7.41%.

For `Cc1nc(SCC(=O)NCc2ccco2)nc(C)c1C`, the “hERG current change (%, negative = inhibition) at 10uM” value was -6.76%.

Turning to `CC1Cc2ccccc2N1C(=O)COC(=O)CCc1nc2ccccc2c(=O)[nH]1` (centres unmarked), the “hERG current change (%, negative = inhibition) at 10uM” value is reported as -24.8%. With `CCOC(=O)N1CCC(NC(=O)c2cccn3c(=O)c4cc(Br)ccc4nc23)CC1` the figure was 3.69%; with `CCC(Sc1nc(C)cc(=O)[nH]1)C(=O)Nc1nc2c(s1)CCCC2` (centres unmarked), -12.4%; with `COc1ccc(CNC(=O)C2CCN(C(=O)N(C)C)CC2)c(OC)c1`, -2.33%. Next, `Cc1nc2ccccn2c1C(=O)N=Nc1c(O)[nH]c2ccccc12`: -1.89%; `COc1ccc(CCNC(=O)CCCN2C(=O)c3ccccc3C2=O)cc1`: 2.74%; `O=C(NC(=O)c1ccccc1)Nc1ccc(-c2cnco2)cc1`: 19.9%. As for `Cn1c(C(=O)NCCC2=CCCCC2)cc2c(=O)n3ccccc3nc21`, the “hERG current change (%, negative = inhibition) at 10uM” value is 19.7%. With `CCN(CC(=O)NCc1ccc(Cl)cc1)C(=O)/C=C/c1ccco1` the figure was -11.9%; with `CCOC(=O)C1=C(C)N(c2ccccc2)C(=O)C1`, 7.58%. With `CCCCOc1ccc(NC(=S)Nc2cc(C)nc(SCCCC)n2)cc1` the figure was 16.3%; with `O=c1c[n+]([O-])c2ccccc2n1OCc1ccccn1`, 18.9%; with `COc1ccc(C2=NOC(C(=O)NCc3ccccc3)C2)cc1` (centres unmarked), -1.01%.

Take `COc1ccc(N2CC(C(=O)Nc3ccc(S(=O)(=O)N4CCCCC4)cc3)CC2=O)cc1` (centres unmarked): the “hERG current change (%, negative = inhibition) at 10uM” value came out at 18%.

`O=C(c1cccnc1)N1CCN(c2c(Cl)cccc2[N+](=O)[O-])CC1`: the “hERG current change (%, negative = inhibition) at 10uM” value is reported as -46%.

As to `CC1(c2ccccc2)NC(=O)N(CC(=O)NCCC2=CCCCC2)C1=O` (centres unmarked), the “hERG current change (%, negative = inhibition) at 10uM” value was found to be 13.1%. Next, `CCn1nnnc1SCC(=O)Nc1nc2ccccc2s1`: 17%; `CCCCOc1ccc(NS(=O)(=O)c2ccc(-n3cnnn3)cc2)cc1`: -3.42%. Next, `CCc1cc(=O)oc2cc(OCC(=O)NCCCN3CCCC3=O)ccc12`: 9.65%; `O=C(CCn1c(=O)c2ccccc2n(Cc2cc(=O)n3ccccc3n2)c1=O)NCc1ccco1`: -4.21%. Next, `Cc1ccc(-c2nnc(-c3ccccc3)o2)cc1`: 9.14%; `O=C(O)C1CCCCN1S(=O)(=O)c1cccc2nsnc12` (centres unmarked): 8.43%. In the case of `CSc1ccccc1C(=O)NCC(c1ccco1)N1CCCCC1` (centres unmarked), the “hERG current change (%, negative = inhibition) at 10uM” value is -15.7%. Next, `CN1CCC(NC(=O)c2cc(-c3cccc(Br)c3)nc3ccccc23)CC1`: -69.7%; `CCOc1ccc(CNS(=O)(=O)c2c(C(=O)N3CCCC3)c(C)n(C)c2C)cc1OC`: 8.09%; `Cc1cc(Cl)ccc1NC(=O)CCC(=O)N/N=C/c1cccnc1`: -0.00262%. For the compound `CN(C)CC(C)(C)CNC(=S)Nc1ccc(S(=O)(=O)N2CCOCC2)cc1`, the “hERG current change (%, negative = inhibition) at 10uM” value is recorded as -8.26%. Next, `COc1ccc(/C=C/C(=O)N2CCNC(=O)C2)c(OC)c1`: 27.9%.

As to `O=C(N(c1ccccn1)c1ccccn1)C12CC3CC(CC(C3)C1)C2`, the “hERG current change (%, negative = inhibition) at 10uM” value was -7.28%.

Take `CCN1C(=O)/C(=C\N2CCN(c3cccc(Cl)c3)CC2)SC1=S`: the “hERG current change (%, negative = inhibition) at 10uM” value turned out to be 4.69%. Turning to `COC(=O)N/N=C\c1cc2c(cc1Br)OCO2`, the “hERG current change (%, negative = inhibition) at 10uM” value is -11.4%.

`COc1cccc(N2CCN(C(=O)CCC(=O)c3ccc(Cl)s3)CC2)c1`: the “hERG current change (%, negative = inhibition) at 10uM” value is -34.5%. With `CC(C)c1nc(CNC(=O)C2CCC(=O)N(CCc3cccc(F)c3)C2)cs1` (centres unmarked) the figure was -4.31%; with `CCN(CC)c1ccc(NC(=O)CSc2nc3nc(C)cc(C)c3c(=O)[nH]2)cc1`, -4.86%.

For the compound `CCn1nc(NS(=O)(=O)c2ccc([N+](=O)[O-])cc2)c2cc3cc(C)ccc3nc21`, the “hERG current change (%, negative = inhibition) at 10uM” value was 15.9%.

Turning to `CCOC(=O)CN1C(=O)C(=O)c2cc(C)ccc21`, the “hERG current change (%, negative = inhibition) at 10uM” value is 10.6%. With `COc1ccc(-n2c(SCC(=O)NCC3CCCO3)nc3c([nH]c4ccccc43)c2=O)cc1OC` (centres unmarked) the figure was 24.5%; with `N#Cc1cc(-c2ccccc2)oc1/N=C/c1ccccc1O`, -1.86%. With `O=[N+]([O-])/C(C(Cl)=C(Cl)Cl)=C(/Sc1ccccc1)N1CCCCC1` the figure was 4.71%; with `CC(Oc1ccccc1)C(=O)Nc1ccc(NC(=O)c2ccccc2)cc1` (centres unmarked), 9.01%. Next, `COc1ccc(/C=C2\SC(N3CCCCC3)=NC2=O)cc1`: -4.52%; `CC(=O)c1ccc(NC(=O)C(C)Oc2ccc(N(C)S(=O)(=O)c3ccc(C)cc3)cc2)cc1` (centres unmarked): -4.31%.

Values taken from paper PMC4336329 (PLoS ONE, 2015).
